The whole screen tested about 270,000 compounds, of which about 5,800 (2.1%) were called active. Another 16% or so got no clear call; they are omitted. The call rests on the fitted dose curve; in most records, active means well fitted inhibition curve with a large enough effect; inconclusive means small, poorly fitted or top-dose-only effect; inactive means flat fitted curve, though single readings scatter. Only a part is listed here, and it is no random draw. A structure can be active in one record and inactive in another.
The compounds below were run against Microtubule-associated protein tau (Homo sapiens) (UniProt P10636) (assay: qHTS for Inhibitors of Tau Fibril Formation, Thioflavin T Binding). Conditions: recombinant tau K18 P301L (four-repeat tau fragment), heparin-induced fibrillization, ThT fluorescence; series mostly up to 57.4 µM; activity, negative = inhibition: at the top concentration.
UniProt P10636, sequence (P10636 whole entry, looked up, the tested form may be a part): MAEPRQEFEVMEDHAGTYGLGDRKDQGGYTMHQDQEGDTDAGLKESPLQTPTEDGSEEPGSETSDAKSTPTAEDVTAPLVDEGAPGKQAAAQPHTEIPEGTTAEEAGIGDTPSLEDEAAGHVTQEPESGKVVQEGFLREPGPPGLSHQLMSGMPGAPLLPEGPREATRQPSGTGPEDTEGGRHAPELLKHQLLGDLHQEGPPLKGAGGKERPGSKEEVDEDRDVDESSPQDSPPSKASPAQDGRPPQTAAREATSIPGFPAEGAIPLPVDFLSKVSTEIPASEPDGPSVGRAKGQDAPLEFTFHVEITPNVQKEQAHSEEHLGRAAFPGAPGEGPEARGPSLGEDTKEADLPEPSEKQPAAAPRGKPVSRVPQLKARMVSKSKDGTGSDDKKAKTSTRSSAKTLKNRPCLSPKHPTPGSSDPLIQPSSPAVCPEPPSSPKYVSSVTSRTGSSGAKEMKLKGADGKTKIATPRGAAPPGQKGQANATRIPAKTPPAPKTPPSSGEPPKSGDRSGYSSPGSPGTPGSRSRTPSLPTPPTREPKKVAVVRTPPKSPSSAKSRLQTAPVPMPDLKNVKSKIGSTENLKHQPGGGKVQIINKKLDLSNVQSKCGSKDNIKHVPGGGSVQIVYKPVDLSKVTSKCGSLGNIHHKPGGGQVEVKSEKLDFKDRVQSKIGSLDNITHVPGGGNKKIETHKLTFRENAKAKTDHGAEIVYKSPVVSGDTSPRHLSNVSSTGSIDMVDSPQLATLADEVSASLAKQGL
Excerpt: NIH Molecular Libraries Probe Production Network [MLPCN]
NIH Chemical Genomics Center [NCGC]
Assay Provider: Carlo Ballatore, University of Pennsylvania
The microtubule-associated protein tau is an abundant protein in the axons of neurons that stabilizes microtubules. With its ability to modulate microtubule dynamics, tau contributes directly or indirectly, to key structural and regulatory cellular functions. Particularly important is the influence tau exerts on axonal transport, which allows signaling molecules, trophic factors and other essential cellular constituents to travel along the axons. Under pathological conditions, tau becomes sequestered into insoluble aggregates called neurofibrillary tangles. This phenomenon is believed to have pathological consequences by promoting axonal transport deficits that ultimately lead to synaptic dysfunction and neuronal loss. To identify inhibitors of tau aggregation, a heparin-induced tau fibril formation assay was used that employed a recombinantly expressed fragment of tau, K18 (Q242-E372), bearing a P301L mutation (Gustke et al. 1994; Hong et al. 1998). This assay monitors tau fibrillization by Thioflavin T (ThT) fluorescence.
Gustke, N., B. Trinczek, et al. (1994). "Domains of tau protein and interactions with microtubules." Biochemistry 33(32): 9511-22.
Hong, M., V. Zhukareva, et al. (1998).
Li, W. and V. M. Lee (2006).
von Bergen, M., S. Barghorn, et al. (2001). "Mutations of tau protein in frontotemporal dementia promote aggregation of paired helical filaments by enhancing local beta-structure." J Biol Chem 276(51): 48165-74.
NCGC Assay Protocol Summary:
For screening, 2 uL/well human K18 P301L (15 uM unlabeled and 0.24 uM Alexa 594-labeled tau, final concentrations) in reagent buffer (100 mM sodium acetate pH 7) was dispensed into black solid 1536-well plates (Grenier) using a solenoid-based dispenser. Following transfer of 23 nL compound or DMSO vehicle by a pin tool, 2 uL/well heparin (20 uM final concentration) in reagent buffer was added and the plate centrifuged 15 s at 1000 RPM. Plates were incubated 6 hr at 37 C and then 1 uL/well ThT (30 uM final concentration) was added. After a 1 hr ambient incubation, the plates were read by an Envision (Perkin Elmer) to monitor ThT fluorescence (450/8 nm excitation and 510/23 nm emission).
Keywords: NIH Roadmap, MLPCN, MLI, MLSMR, NCGC, qHTS, tau, tauopathies, Alzheimer's disease, fibril, neurodegeneration, aggregation
Further: nearly all actives have a fitted effect of over 55% in size.
On the % scale 0 is the no-effect control and ±100 the full control effect; potency means the concentration at half of the fitted maximal effect.

Row | SMILES | Potency | activity, negative = inhibition
1 | O=C(Nc1ccc(F)cc1)C1=CC(=O)N2CCN=C2S1 | active: 17.8 µM | –
2 | O=C(NCCCO)/C(=C/c1ccco1)NC(=O)c1ccc(Br)o1 | – | inactive: -14.7%
3 | Cc1c(OCc2ccccc2)cccc1OCc1ccccc1 | – | inactive: -10.1% [at 11.5 µM]
4 | COc1cccc([C@@H]2Oc3ccc(OC)cc3C(=O)[C@H]2OC(=O)NCc2ccc3c(c2)OCO3)c1 | – | inactive: -13%
5 | [C-]#[N+]/C(C#N)=C\c1cc(C(C)(C)C)c(O)c(C(C)(C)C)c1 | active: 25.1 µM | –
6 | COc1ccc(C2=CSC3=C(C(=O)c4cccc(S(=O)(=O)N(C)C)c4)CCN23)cc1 | active: 25.1 µM | –
7 | O=C(c1ccccc1)c1c2c(cc3sc4ccccc4[n+]13)-c1cccc3cccc-2c13 | active: 6.31 µM | –
8 | CC12C(=O)OC(=O)C1(C)C1CCC2O1 (stereo unspecified) | inactive | –
9 | O=C(c1ccc(F)cc1)C1CCN(CCn2c(=O)[nH]c3ccccc3c2=O)CC1 | inactive | –
10 | Cc1ccccc1N=Nc1c(C)[nH]n(C(N)=S)c1=O | active: 14.1 µM | –
11 | CC(=O)N[C@@H](CSC/C=C(\C)CC/C=C(\C)CCC=C(C)C)C(=O)O | inactive | –
12 | Cc1cc(O)c(NC(=S)NC(=O)c2ccc(-c3ccc(Cl)cc3)o2)cc1C | active: 11.2 µM | –
13 | C[C@@](Cc1ccc(O)c(O)c1)(NN)C(=O)O | – | inactive: -8.44%
14 | Cc1cc(C)n2c(Nc3ccc4c(c3)OCCO4)c(-c3ccccc3)nc2n1 | – | inactive: -15%
15 | CC1=C(C)/C(=N\OS(=O)(=O)c2ccccc2)C=CC1=O | active: 12.6 µM | –
16 | CN1C[C@@H]2C(c3ccc(C(F)(F)F)cc3)C3(c4ccccc4)CC2(C3)[C@H]1c1ccccc1 (stereo partly specified) | – | inactive: -9.12%
17 | O=C(NCc1nc2ccccc2[nH]1)C1=C[C@H](c2ccc(Br)cc2)C[C@H](OCc2ccc(CO)cc2)O1 | – | inactive: -1.59%
18 | COC(=O)C1CCN(C2=C(NS(=O)(=O)c3ccc(Cl)cc3)C(=O)c3ccccc3C2=O)CC1 | active: 14.1 µM | –
19 | O=C(/C=C/c1ccc(-c2ccccc2)o1)c1ccccc1 | – | inactive: 5.58%

Row | SMILES | Potency | activity, negative = inhibition
20 | CCOc1ccc(NC(=O)CCNS(=O)(=O)c2cccs2)cc1 | – | inactive: -2.62%
21 | CNc1nc(N/N=C/c2ccc([N+](=O)[O-])cc2)nc(Nc2ccccc2)n1 | active: 3.98 µM | –
22 | O=C1NC(c2cc(Cl)cc([N+](=O)[O-])c2O)Nc2ccccc21 (stereo unspecified) | active: 7.08 µM | –
23 | CNCC(O)c1ccc(O)c(O)c1 (stereo unspecified) | inactive | –
24 | c1cc(CN2CCCCC2)cc(OCCCNc2nc3ccccc3s2)c1 | inactive | –
25 | CCc1cc2c(nc1CC)CCN(CC/C(C)=N/O[C@@H](C)c1cc(-c3c(C)cc(C)cc3C)no1)C2 | – | inactive: -7.72% [at 11.5 µM]
26 | N=C(N)SCc1nc2ccccc2c(=O)n1-c1ccccc1 | – | inactive: 6.05%
27 | Cc1cc(C)c(C(=O)COc2cccnc2[N+](=O)[O-])cc1C | active: 14.1 µM | –
28 | CCN1/C(=C/c2ccc3cc(C)ccc3[n+]2CC)Sc2cc(C)ccc21 | active: 14.1 µM | –
29 | COC(=O)CCC(=O)OC1(C)C(=O)C=C2C=C(C3CC3)N(c3ccccc3)C=C2C1=O (stereo unspecified) | – | inactive: -13.8%
30 | O=C1/C(=C\c2cccnc2)SC(=S)N1c1ccc(F)cc1 | – | inactive: -9.41%
31 | S=c1[nH]nc(-c2n[nH]c3c2CCC3)n1/N=C/C=C/c1ccco1 | active: 22.4 µM | –
32 | C#CCCOC(=O)N1C2=NC(C(=O)OC)=C(C(=O)OC)[C@@H]3N(C)c4ccccc4[C@]23C[C@H]1C(=O)OC | – | inactive: 9.18% [at 11.5 µM]
33 | COC(=O)CCCC1=CC2=C(c3ccccc3)C(=O)C(C)(OC(=O)C3CCCC3)C(=O)C2=CN1Cc1ccc2c(c1)OCO2 (stereo unspecified) | – | inactive: -0.855% [at 11.5 µM]
34 | COc1cc(/C=N\Nc2nc(-c3cccs3)c(NC(C)=O)s2)ccc1O | active: 15.8 µM | –
35 | CC(C)Oc1ccc2c(=O)c(-c3ccccc3)coc2c1 | – | inactive: -20.8%
36 | Cc1cccc(C(=O)N2CCC(=O)N([C@H](COCc3cccc(C(F)(F)F)c3)Cc3ccccc3)CC2)c1 | – | inactive: -20.8%
37 | CCOC(=O)c1nc(Nc2ccc(C(=O)OC)cc2)c2ccccc2n1 | – | inactive: 1.23%
38 | COCCCNC(=O)CCC(=O)NNc1nc2ccccc2c2nc(-c3ccccc3)nn12 | – | inactive: -3.6%

Row | SMILES | Potency | activity, negative = inhibition
39 | CCCCC[C@H](O)/C=C/[C@H]1C(=O)C=C[C@@H]1C/C=C\CCCC(=O)O | – | inactive: -16.4%
40 | COc1ccc(Cl)cc1C(=O)NCCc1ccc(S(=O)(=O)NC(=O)NC2CCCCC2)cc1 | inactive | –
41 | COc1ccc(NC(=O)C2CCCN(S(=O)(=O)c3c(C)[nH]c(=O)[nH]c3=O)C2)cc1Cl (stereo unspecified) | – | inactive: -10.1%
42 | COC(=O)CCC(=O)OC1(C)C(=O)C=C2C=C(C3CC3)N(c3cccc(C#N)c3)C=C2C1=O (stereo unspecified) | – | inactive: 11.4% [at 11.5 µM]
43 | N#Cc1ccc(C23CC4(C2)[C@H](CN(CC2CCCCC2)[C@@H]4c2ccccc2)C3c2ccccc2)cc1 (stereo partly specified) | – | inactive: -0.663%
44 | O=C(O)CCc1ccc(-c2cccs2)n1CC(=O)Nc1ccccc1C(F)(F)F | – | inactive: -14.5%
45 | NC(=O)c1sc2nc(-c3ccco3)ccc2c1N | active: 6.31 µM | –
46 | CCCCCCC(=O)Cc1cc(OC)c(OC)cc1C=C(C(=O)OCC)C(=O)OCC | – | inactive: -13.1% [at 11.5 µM]
47 | CCOc1ccccc1CNC(=O)c1cc2oc3ccccc3c2n1CC | – | inactive: -22.3%
48 | COC(=O)C1=C(C(=O)OC)[C@@H]2N(Cc3ccccc3)c3ccccc3[C@@]23C[C@@H](C(=O)OC)N(C(=O)COCc2ccccc2)C3=N1 | – | inactive: -10.9% [at 11.5 µM]
49 | COc1ccnc(CSC(N)=Nc2ccccc2OC)c1 | active: 31.6 µM | –
50 | O=C(Nc1ccccc1)/C(=C/c1ccc2c(c1)OCO2)NC(=O)c1ccco1 | – | inactive: -3.24%
51 | O=C(/C=C/c1ccc(-c2ccccc2[N+](=O)[O-])o1)c1ccccc1 | active: 17.8 µM | –
52 | COc1cc(Cl)c(C)cc1NC(=O)c1ccc2c(SCC(=O)O)c3c(nc2c1)CCCC3 | – | inactive: -18.3%
53 | CCCC[C@@H]1C[C@H]1[C@@H](NC(=O)c1cccs1)c1ccc(Cl)cc1 | – | inactive: -13.9%
54 | O=C(C1=C[C@@H](C2CC2)C[C@@H](OCCCCO)O1)N1CCN(Cc2ccccc2)CC1 | – | inactive: -6.68%
55 | CCN1CC=C2C(C#N)=C(N)C(C#N)(C#N)C(c3cc(Cl)ccc3Cl)C2C1 (stereo unspecified) | active: 12.6 µM | –
56 | COC(=O)CCCC1=CC2=CC(=O)C(C)(OC(=O)c3cccs3)C(=O)C2=CN1CCCCO (stereo unspecified) | – | inactive: -5.26% [at 11.5 µM]

From PubChem BioAssay AID1460 (National Center for Advancing Translational Sciences (NCATS), 2008)
